According to PMC12136788:
The other results are listed elsewhere or left out.

B1: chrX:20249591:20249592:+_ENSMUSG00000001924_ENSMUST00000001989|mus_mus|motif|central (ssRNA)
RNA: GGGAGUUCUACAGUCCGACGAUCCACCAGGAAGUACUUUUGCUUGCUCAGCUUCUCCUGAAAGUCUGACCCAAAUACAGCGGCCUGCCCAUCGUAACGGUUCUGACGUGGGAGGCACUUCUCCUCUGUCAGAGCCUCUUUGUCCAACAGAGGAUUGAGCAUCA
B2: chr1:46159212:46159213:+_ENSG00000159596_ENST00000372025|hu_mus|hu_hu_hu_mus_True|8_98 (ssRNA)
RNA: GGGAGUUCUACAGUCCGACGAUCUCUGAUCCCUCCCAAGAAAGAUAGGAAACCGGCUCCAUAAGCCAUCUGAGUGAAAGCUAGGACGGGGAUAUAAGACUUUGUUAUUACCAUGAGAAGUGGGGGAGCAACGAAGGGGAUUAACAACAGAGGAUUGAGCAUCA
B3: 25299266_25299475_5332_CDS_ENSMUSG00000026944_ENSMUST00000102919|mouse|control|control (ssRNA)
RNA: GGGAGUUCUACAGUCCGACGAUCGUUCAUGGGGUGGUUGGUGACGGUGAUGCCAUAGGCUGCUGGAUUGCCCUUGCUUUUGGGUAGGUUUGCACGCAGAAUGGCAUUGUUGAGGCUGUUGAGGUAGGUGGGCAUGCUGUGGUACAACAGAGGAUUGAGCAUCA
B4: chr14:66974463:66974464:+_ENSMUSG00000022044_ENSMUST00000074523|mus_hu|mus_mus_mus_hu_False|1_88 (ssRNA)
RNA: GGGAGUUCUACAGUCCGACGAUCUUGUAGGACGACUUAUUCAGGGGAUCAGACAAGAAGCAGGAGCAGAACAAGGACACCAGCGGGAGCUCCUUCAUCUUCUCUUUGUAGGCAGCAAGGGUCAUGUUUCUGGGAUCCUGGUGGCAACAGAGGAUUGAGCAUCA
B5: 72942203_72944209_2190_3pUTR_ENSMUSG00000036698_ENSMUST00000044113|mouse|control|control (ssRNA)
RNA: GGGAGUUCUACAGUCCGACGAUCCAGCUUGAUGCAGGCCUCUCUGAUGGCCAGGAGCUCAUGGUGGAGAACCUGCUGGAACUGGCCCUCGGAGACGCCAUCGCGGUAGAAGAUGAUGCGGGUGGGCUUGAAGCGGGUGGACUUCAACAGAGGAUUGAGCAUCA
B6: chr2:75765252:75765253:+_ENSMUSG00000042410_ENSMUST00000047232|mus_hu|FALSE|FALSE (ssRNA)
RNA: GGGAGUUCUACAGUCCGACGAUCAGUGAUUCAAAGUAAUCAUUUCACUUUAAUAUCCAGGUUUGAAUGUACAAAUGCUUGCUAAAUGUGAUUAAUGUUCUCAUUAUUUAAGAAACAGGAUAUUUCAAACUUUUGAUUAUGGUACAACAGAGGAUUGAGCAUCA
B7: 219134153_219134704_336_CDS_ENSG00000127837_ENST00000248450|human|control|control (ssRNA)
RNA: GGGAGUUCUACAGUCCGACGAUCGCCGACCACCCCUUCCUGGGGUUCUAGAACCCAGCCCUCUUCGUUGCCCUCUUCCUCCUCUUCUUCCUCAAAGUCCACAUCUUCCAUCUCCUGGGCCAGGUCAUCUGGGUCCGGCGGACCCAACAGAGGAUUGAGCAUCA
B8: chr2:35989780:35989781:-_ENSMUSG00000026889_ENSMUST00000028251|mus_mus|FALSE|FALSE (ssRNA)
RNA: GGGAGUUCUACAGUCCGACGAUCGCAUUCUCCAGGGGAAGAGUUUUGGUUUCUGUUUCCAUCAAUCUCUGAGAAAUACUGCUAGCCUCAGAGCUGUGCCCUCAGCUCAUGCCCCGAAAGCAGCUUCCGACGCUGGGGUCCGAGCAACAGAGGAUUGAGCAUCA
B9: chr5:71593506:71593507:-_ENSG00000113048_ENST00000457646|hu_mus|FALSE|FALSE (ssRNA)
RNA: GGGAGUUCUACAGUCCGACGAUCAUCUAGAUCUUCUCGGGAUGCAAUGUUGUCCACAAACCGUGAUAUUGAUAAAGAACUAACAGGCAAUUUUCUUUCAUACGCUUUGUCCAUUAAGGAUGCAAGAUCAGCCAGAUGGUAUUCCAACAGAGGAUUGAGCAUCA
B10: chr2:103900078:103900079:+_ENSMUSG00000027180_ENSMUST00000028603|mus_hu|motif|central (ssRNA)
RNA: GGGAGUUCUACAGUCCGACGAUCCUCCUCCUCCUCUUCUUCCAUCUCUUCAUAUUCAUCAGGACCCAUUUCCAAUCGGGCGGUAGACACCCUGAAUGUUGGACAUGCCAUAUGGAAUCGGGGAAUGGCAACAUUAAAGAUCUUCAACAGAGGAUUGAGCAUCA
B11: 39958035_39958377_338_CDS_ENSMUSG00000026074_ENSMUST00000163854|mouse|control|control (ssRNA)
RNA: GGGAGUUCUACAGUCCGACGAUCCAGCUCAAAAAUCCCAGCAGGGUCCCGCAGGGACGACAGGUCAAUGUCCACCAGGCUCUUCGCGGGAGAGUCGUUCGCCAUCUUCCCCGGGUCGCCGCUCCGGGAGCGGGCGAGAGAGCGCAACAGAGGAUUGAGCAUCA
B12: chr11:80292881:80292882:+_ENSMUSG00000048895_ENSMUST00000053413|mus_mus|FALSE|FALSE (ssRNA)
RNA: GGGAGUUCUACAGUCCGACGAUCCAGCUUAAAAUUAACAAUUGGGGGGGGGGGGCAGGGAUGGGAAACAGCAACACCCCUAUUGACUGAUCUCACCUCCCCCCAACGAUACAGAACAAAGAUCACGGGCACCAGCGAGAGGCCCAACAGAGGAUUGAGCAUCA
B13: 30087084_30087204_3749_3pUTR_ENSG00000139514_ENST00000380752|human|control|control (ssRNA)
RNA: GGGAGUUCUACAGUCCGACGAUCGGAAAGGAAACUAAGUUUUGAAAGCAGCAUUUCCAUUUCCCCUGGUGUCCAAAAUGCCCACAUCCCUCCUCCUCCCCCAUCAGCAUGGGCCUUCUGUCUCCUGAAGUAGACUCAGUGGAACAACAGAGGAUUGAGCAUCA
B14: chr7:65705475:65705476:+_ENSG00000169902_ENST00000304842|hu_hu|hu_hu_hu_mus_True|18_68 (ssRNA)
RNA: GGGAGUUCUACAGUCCGACGAUCUCUAUUCGGUGAUGGCACUCCAUGGCAUGCUGGCCCAGGUAAAACACAGUCACAGAACUAAUCACCAGACACGCCAAGAGUAAGUUCUGCUUCAGCUUUCCAACCAUCUUGAUGUGGUUACAACAGAGGAUUGAGCAUCA
B15: chr10:34018870:34018871:+_ENSMUSG00000039485_ENSMUST00000047935|mus_hu|FALSE|FALSE (ssRNA)
RNA: GGGAGUUCUACAGUCCGACGAUCCUUACCAUAAGUACAUGGGUAUCAGGACACAGCCAGCAUAAAGUAUGAAGCCCAAUCAGUUAUUUGUGAAAAUGUAUCAAGAUUCUUUGUGGUACAGAACCACUUAAAUUGGGAGAAGAGCAACAGAGGAUUGAGCAUCA
B16: chr1:180971808:180971809:-_ENSG00000135823_ENST00000258301|hu_mus|motif|central (ssRNA)
RNA: GGGAGUUCUACAGUCCGACGAUCUUUUCUUAUGCUCAAUUCAGUUGCAUCCAAGUUGAAUUUUCUAGGAUUUGCUUCAACGGUGCUGAUGGUUUCAUCGAGGUCCUCCAGAUCCCACUCUAUGCUGCGGAGAUUGUUCCUCAGCAACAGAGGAUUGAGCAUCA
B17: chr1:39494564:39494565:+_ENSG00000168653_ENST00000372967|hu_hu|hu_hu_hu_mus_True|98_108 (ssRNA)
RNA: GGGAGUUCUACAGUCCGACGAUCAUGUGCACGUCUCAUCGUUUUCUACCGAAGCAAGCACUCUUCGAAGUCAUCGAACUCUAUCUUGCACUCCUUUUUCGCCCGGGUCCCACCGAUCCCGUGUGCACACUCUAUCCACUCUUUCAACAGAGGAUUGAGCAUCA
B18: 129999435_130001125_434_CDS_ENSMUSG00000027404_ENSMUST00000103199|mouse|control|control (ssRNA)
RNA: GGGAGUUCUACAGUCCGACGAUCAGCCCUGCCGAUGCCUGGCCCCCCAGCAGCUCCAGCAAGUGGCACUCGGGCAAUGCCAGUAUCUUUGGGAGGAGGUCCUUCUACUGUCAUGGAGACCAGGUUCUCCCCUCGAAGCAACACCAACAGAGGAUUGAGCAUCA
B19: chr3:98235988:98235989:-_ENSG00000080822_ENST00000341181|hu_hu|motif|central (ssRNA)
RNA: GGGAGUUCUACAGUCCGACGAUCUAAGCUUCGGCAAAUGCAAGCACAAAGUCCGAUCAAAGCCCCAAAGCACAUCAAACCGGAACUCACAAAAGGUAAAAGGAACUGGCAACGCCAAAGAUAGGUCCUAAGGAGAUCAAUCCCCAACAGAGGAUUGAGCAUCA
B20: chr1:66461069:66461070:+_ENSMUSG00000015222_ENSMUST00000114013|mus_hu|motif|central (ssRNA)
RNA: GGGAGUUCUACAGUCCGACGAUCCUGACUGUCCGUUUUUACAAUGACAUGGUUUUCAUCAGUUACCGGGGGCAAGCCAGUACGACGGUCCUCAACCACAGUCUCUGAUGGGACUGAUUUCCUCCUGGCAACCUCAGCAUCUGCCAACAGAGGAUUGAGCAUCA
B21: chr10:33190432:33190433:-_ENSG00000150093_ENST00000302278|hu_mus|hu_hu_hu_mus_True|18_98 (ssRNA)
RNA: GGGAGUUCUACAGUCCGACGAUCUACAUUUUCCAAACCUGCACAUGAAUAAAACCCUGGCCACAGAGCCCCAAAACUACCCUACUGUGACUAAGAUGCUGCUGCUGUGAGCUUGGUUGUUGUGGGACCGCCUGAGUAGGAUUCCAACAGAGGAUUGAGCAUCA
B22: chr1:8037743:8037744:+_ENSG00000116288_ENST00000493373|perfect_dup|FALSE|FALSE (ssRNA)
RNA: GGGAGUUCUACAGUCCGACGAUCUCCAUUCAUCAUUUUGUCUUUAGCAAGAGGGUGUGUUGUAACUUUACUUCCAAAACCUAUUUCAUGAGCCAACAGAGCAGUAGGACCUGCACAGAUGGCGGCUAUCAGGCCCUUCCGGUUCAACAGAGGAUUGAGCAUCA

Molecular target: T1, UNK ZnF1-3 (human, UniProt Q9C0B0 31-174)
T1 sequence: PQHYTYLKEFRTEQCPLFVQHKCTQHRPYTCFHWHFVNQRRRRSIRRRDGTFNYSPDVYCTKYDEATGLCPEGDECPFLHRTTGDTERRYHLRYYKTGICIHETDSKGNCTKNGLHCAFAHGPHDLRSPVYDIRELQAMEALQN
Test: nsRBNS (natural sequence RNA bind-n-seq); RBNS binding buffer (assumed for nsRBNS): 25 mM Tris pH 7.5, 150 mM KCl, 3 mM MgCl2, 0.01% Triton X-100, 500 ug/ml BSA, 20 U/ml SUPERase-In, 4 C; UNK is unkempt and MSI1 is Musashi-1; names of the RNAs are library labels; protein concentration not given here; high values mean tight binding

| Binder | binding signal |
| --- | --- |
| B1 | 0.623 enrichment R |
| B2 | 1.69 enrichment R |
| B3 | 0.732 enrichment R |
| B4 | 1.78 enrichment R |
| B5 | 0.897 enrichment R |
| B6 | 0.812 enrichment R |
| B7 | 1.15 enrichment R |
| B8 | 1.42 enrichment R |
| B9 | 0.967 enrichment R |
| B10 | 0.868 enrichment R |
| B11 | 1.34 enrichment R |
| B12 | 1.05 enrichment R |
| B13 | 0.995 enrichment R |
| B14 | 0.58 enrichment R |
| B15 | 1.84 enrichment R |
| B16 | 0.435 enrichment R |
| B17 | 0.637 enrichment R |
| B18 | 1.37 enrichment R |
| B19 | 1.61 enrichment R |
| B20 | 0.687 enrichment R |
| B21 | 1.45 enrichment R |
| B22 | 1.05 enrichment R |
